The campaign covered roughly 310,000 compounds. About 14,000 (4.5%) showed an effect of 50% or more. The effect is printed as a negative number. The list shows a part of the results.
Molecular target: human ether-à-go-go-related gene (hERG) potassium channel (human, UniProt Q12809)
Assay: primary screen, population patch clamp on CHO cells stably expressing hERG
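Note: peak tail current of the secondary pulse compared with the same well before compound.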

human ether-à-go-go-related gene (hERG) potassium channel, sequence (Q12809 whole entry, looked up): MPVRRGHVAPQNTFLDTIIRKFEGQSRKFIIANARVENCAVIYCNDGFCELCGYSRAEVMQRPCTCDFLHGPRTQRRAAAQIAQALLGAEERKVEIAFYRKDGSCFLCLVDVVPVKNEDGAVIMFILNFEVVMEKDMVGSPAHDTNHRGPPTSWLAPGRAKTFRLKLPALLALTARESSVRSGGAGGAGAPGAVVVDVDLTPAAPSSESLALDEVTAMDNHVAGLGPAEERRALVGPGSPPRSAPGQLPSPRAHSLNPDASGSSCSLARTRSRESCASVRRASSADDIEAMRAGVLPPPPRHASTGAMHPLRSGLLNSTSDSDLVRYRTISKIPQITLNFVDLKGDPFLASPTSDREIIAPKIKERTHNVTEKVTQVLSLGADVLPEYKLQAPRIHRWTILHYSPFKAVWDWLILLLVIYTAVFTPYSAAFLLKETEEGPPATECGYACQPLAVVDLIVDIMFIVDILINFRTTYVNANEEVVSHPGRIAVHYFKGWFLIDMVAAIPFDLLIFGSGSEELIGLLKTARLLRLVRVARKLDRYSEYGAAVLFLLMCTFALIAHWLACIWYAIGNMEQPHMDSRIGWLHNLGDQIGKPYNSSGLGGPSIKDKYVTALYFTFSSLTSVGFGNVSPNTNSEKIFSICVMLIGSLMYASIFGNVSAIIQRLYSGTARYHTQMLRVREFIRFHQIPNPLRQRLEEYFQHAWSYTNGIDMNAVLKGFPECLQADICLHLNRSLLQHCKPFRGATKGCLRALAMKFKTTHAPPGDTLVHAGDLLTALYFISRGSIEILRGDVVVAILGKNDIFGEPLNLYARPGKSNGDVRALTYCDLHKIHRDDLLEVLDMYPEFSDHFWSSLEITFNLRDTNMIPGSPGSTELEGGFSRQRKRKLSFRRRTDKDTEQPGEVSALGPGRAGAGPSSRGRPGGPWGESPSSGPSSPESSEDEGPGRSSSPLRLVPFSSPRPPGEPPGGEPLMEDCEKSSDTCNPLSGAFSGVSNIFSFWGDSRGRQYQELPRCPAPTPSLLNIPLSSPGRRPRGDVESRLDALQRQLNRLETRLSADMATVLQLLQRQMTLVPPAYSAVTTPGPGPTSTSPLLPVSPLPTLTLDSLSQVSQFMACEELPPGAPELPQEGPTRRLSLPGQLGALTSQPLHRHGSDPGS

Row | SMILES | hERG current change (%, negative = inhibition) at 10uM [%]
1 | CC1CCC(C(C)C)C(OCC(O)CN2CCCC(C)C2)C1.Cl (stereo not drawn) | -31.6
2 | CCOc1ccccc1C(=O)N1CCN=C1SCc1cccnc1 | -2.67
3 | Cc1ccc(OCC(=O)Nc2ccon2)c([N+](=O)[O-])c1 | 11.9
4 | NS(=O)(=O)c1ccc(CCNC(=O)CC(NC(=O)c2ccccc2Cl)c2ccccc2)cc1 (stereo not drawn) | 12.6
5 | COc1ccc(CN2C3CCCC2CC(NC(=O)/C=C/c2ccccc2)C3)cc1 (stereo not drawn) | -88
6 | CCOc1cccc(OCCCOc2cccc3cccnc23)c1 | -8.52
7 | COc1ccc(/C=N\NC(=O)CCN2CCN(c3ccccc3)CC2)cc1OC | -56.9
8 | Cc1cc(C)n(CCc2nc(-c3ccc(C(C)(C)C)cc3)cs2)n1 | 2.1
9 | O=C(NCc1cccnc1)C1CCCN1S(=O)(=O)c1ccc(Cl)cc1 (stereo not drawn) | -22.2
10 | C#CCN(C(=O)c1ccc(OC)c(OC2CCN(C(C)C)CC2)c1)C1CCCCC1 | -46.4
11 | Cc1ccc2cccc(SCC(=O)NCc3ccco3)c2n1 | 1.96
12 | Cc1cccc(NC2=NC3(CCCCC3)N=C(N)N2)c1C | 16.3
13 | O=C(COc1ccc(S(=O)(=O)N2CCOCC2)cc1Cl)NC1CC1 | 3.02
14 | CC(=O)Nc1ccc2c(c1)CCc1ccccc1-2 | 15.1
15 | CC(C)(C)CC(=O)Nc1ccc(-c2cn3cccnc3n2)cc1 | 6.66
16 | CSc1ncc(Cl)c(C(=O)C(C#N)c2nc3c(C)cc(C)cc3c(=O)[nH]2)n1 (stereo not drawn) | 24.6
17 | Nc1nc(-c2ccc(F)cc2)cs1 | -1.1
18 | COc1cc(C2C=C(Nc3ccccc3)C(=O)N2c2ccccc2)ccc1O (stereo not drawn) | 0.128
19 | COC(=O)c1ccc(C2C(C(C)=O)=C(O)C(=O)N2CCO)cc1 (stereo not drawn) | 6.11
20 | CC(=O)Nc1c2c(nn1-c1cccc(Cl)c1)CS(=O)(=O)C2 | -16.8
21 | Cc1cc(C(=O)NC(C)c2ccc3c(c2)OCO3)cs1 (stereo not drawn) | -8.95
22 | CCOC(=O)N1CCC(NC(=O)c2cc3c(=O)[nH]c4ccccc4c3n2C)CC1 | -3.23
23 | CC(=O)C12OC1CC1C3CCC4=CC(=O)CCC4(C)C3CCC12C (stereo not drawn) | -1.96

Row | SMILES | hERG current change (%, negative = inhibition) at 10uM [%]
24 | CCN(CC)C(=O)c1cccc2c1C(=O)c1ccccc1-2 | 0.818
25 | N=C(N)c1ccc(/C=C/c2ccc(C(=N)N)cc2O)cc1.O=S(=O)(O)CCO | 5.09
26 | O=C(Nc1ccc(S(=O)(=O)Nc2cnc3ccccc3n2)cc1)c1ccccc1Br | -10.5
27 | Cc1nn(C)c(C)c1CNC(=O)Nc1ccc(Cl)cc1 | -5.93
28 | COc1ccc(/C=N/NS(=O)(=O)c2ccccc2)cc1OS(=O)(=O)c1ccccc1 | -4.53
29 | CC1CCCN(C(=O)CCS(=O)(=O)c2cc3c(cc2Cl)NC(=O)CO3)C1 (stereo not drawn) | -27
30 | CCOc1ccc(N(CC(=O)NC2CCCCCC2)S(=O)(=O)c2c(C)noc2C)cc1 | -18.2
31 | COc1cc2c(cc1OC)C(c1cccs1)N(C(=S)NC(C)C)CC2 (stereo not drawn) | -40
32 | CN(C(=O)CS(=O)(=O)Cc1ccccc1Cl)c1ccccc1 | 8.38
33 | Cc1cc(C)n(-c2nc(C)nc3c2cnn3-c2ccccc2)n1 | 13
34 | C=CCn1c(NCc2c[nH]c3ccccc23)nc2ccccc21 | -27.6
35 | O=C(COc1ccccc1)NC1CCCN(Cc2ccccc2F)C1 (stereo not drawn) | -15.1
36 | COc1ccc(/C=N/NC(=O)c2ccccc2O)cc1Cn1nnc2ccccc21 | -5.6
37 | O=C(N/N=C\c1ccccc1)c1sccc1-n1cccc1 | -17.5
38 | CSCCC(NS(=O)(=O)c1ccc(C)cc1)C(=O)N1CC=C(c2ccccc2)CC1 (stereo not drawn) | 10.2
39 | O=C(O)CCC(=O)NC1CCCCC1 | 6.89
40 | O=C(CCC(=O)N1CCN(S(=O)(=O)c2ccc3ccccc3c2)CC1)NCC(F)(F)F | 25.8
41 | CCNS(=O)(=O)c1ccc2c(c1)n(C)c(=O)n2C | -5.88
42 | COC(=O)CSc1ncnc2scc(-c3ccccc3)c12 | -22.1
43 | Cc1ccc(C(=O)N/C(=C/c2ccc(F)cc2)C(=O)NCc2ccncc2)cc1 | -72.8
44 | CCCOc1ccc(CSC2=NCCN2)cc1[N+](=O)[O-] | -66.7
45 | O=C(c1cnn2c1NC(c1ccc(Br)cc1)CC2C(F)(F)F)N1CCN(C23CC4CC(CC(C4)C2)C3)CC1 (stereo not drawn) | -7.5

From paper PMC4336329 (PLoS ONE, 2015)
